# According to PubChem BioAssay AID1347165 (National Center for Advancing Translational Sciences (NCATS), 2019):
# Hit rate of the full screen: of about 220,000 compounds, about 5,700 (2.6%) were called active. Inconclusive results, whose numbers are uncertain, are shown with a selection of clear calls. Calls come from the whole dose curve; as a rule, active = well fitted inhibition curve with a large enough effect; inconclusive = small, poorly fitted or top-dose-only effect; inactive = no such curve, though single readings can be large or run the other way. Potencies beside an inconclusive call are fits to weak or partial responses and may not hold up.
# Molecular target: Lysine-specific demethylase 5B (Homo sapiens) (UniProt Q9UGL1)
# Sequence of UniProt Q9UGL1 (Q9UGL1 whole entry, looked up): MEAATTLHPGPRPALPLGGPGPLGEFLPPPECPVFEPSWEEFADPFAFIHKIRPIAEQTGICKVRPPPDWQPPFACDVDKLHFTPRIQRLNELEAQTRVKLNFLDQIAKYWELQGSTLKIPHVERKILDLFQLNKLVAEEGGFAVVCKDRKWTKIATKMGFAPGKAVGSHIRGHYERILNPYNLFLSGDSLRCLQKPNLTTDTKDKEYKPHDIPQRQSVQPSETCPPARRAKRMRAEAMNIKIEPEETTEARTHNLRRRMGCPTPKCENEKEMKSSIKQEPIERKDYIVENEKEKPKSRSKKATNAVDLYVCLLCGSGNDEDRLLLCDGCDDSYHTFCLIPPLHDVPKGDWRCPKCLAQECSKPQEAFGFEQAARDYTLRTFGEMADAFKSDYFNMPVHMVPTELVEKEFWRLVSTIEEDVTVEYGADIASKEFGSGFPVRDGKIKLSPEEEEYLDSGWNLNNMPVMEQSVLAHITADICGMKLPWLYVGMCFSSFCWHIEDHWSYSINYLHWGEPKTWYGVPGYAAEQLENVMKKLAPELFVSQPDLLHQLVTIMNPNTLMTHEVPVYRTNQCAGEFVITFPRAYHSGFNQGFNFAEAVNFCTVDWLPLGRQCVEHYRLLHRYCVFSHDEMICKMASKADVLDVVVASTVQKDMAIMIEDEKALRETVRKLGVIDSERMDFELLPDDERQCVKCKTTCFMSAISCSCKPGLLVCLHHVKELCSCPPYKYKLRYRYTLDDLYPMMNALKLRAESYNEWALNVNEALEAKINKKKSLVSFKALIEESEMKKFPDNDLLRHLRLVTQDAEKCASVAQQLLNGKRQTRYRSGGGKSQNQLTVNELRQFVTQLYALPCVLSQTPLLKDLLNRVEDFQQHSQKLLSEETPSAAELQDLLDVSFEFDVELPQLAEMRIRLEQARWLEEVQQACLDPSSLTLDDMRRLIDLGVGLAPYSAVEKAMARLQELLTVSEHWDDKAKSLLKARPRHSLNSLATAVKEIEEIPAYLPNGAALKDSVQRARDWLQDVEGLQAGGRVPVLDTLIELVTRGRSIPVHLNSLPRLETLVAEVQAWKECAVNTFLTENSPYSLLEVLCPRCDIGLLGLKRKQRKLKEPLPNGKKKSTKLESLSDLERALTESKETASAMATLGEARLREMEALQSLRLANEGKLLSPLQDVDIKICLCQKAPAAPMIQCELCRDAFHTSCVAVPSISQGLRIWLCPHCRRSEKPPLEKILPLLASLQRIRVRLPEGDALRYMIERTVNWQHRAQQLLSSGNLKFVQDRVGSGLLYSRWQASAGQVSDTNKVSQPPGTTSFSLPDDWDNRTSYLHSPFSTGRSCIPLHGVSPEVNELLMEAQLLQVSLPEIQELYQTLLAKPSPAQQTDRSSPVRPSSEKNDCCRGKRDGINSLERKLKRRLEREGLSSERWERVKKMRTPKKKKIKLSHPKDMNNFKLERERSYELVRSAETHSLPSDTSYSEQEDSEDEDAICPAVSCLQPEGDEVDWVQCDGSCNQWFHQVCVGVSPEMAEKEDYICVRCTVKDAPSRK
# Experiment: Primary screen for KDM5B Histone Demethylases FDH-coupled qHTS; note: nearly all actives have a fitted effect of over 70% in size; for activity change, negative = inhibition: 0% is about no effect
# Settings: FDH-coupled NADH fluorescence (FDH is formaldehyde dehydrogenase); activity change, negative = inhibition: at 57.7 µM (top of the series) unless noted
# Summary of the method: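 Here, H3K4me3 peptide (12.5 µM in substrate mix) is demethylated by KDM5BΔAP, 200 nM final, after 10 min compound exposure. Formaldehyde product is coupled through FDH (0.25 U/mL in mix) to NADH fluorescence; 30-min ΔRFU feeds dose-response curves.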
# Potency is the fitted concentration of half-maximal effect; tags give direction and shape of the fitted curve.
SMILES,Potency,"activity change, negative = inhibition"
O=C(NCc1ccccc1-n1cncn1)C12CNCC1CNC2 (configuration not stated),"inconclusive: 1.78 µM [inhibitor, partial curve, poor fit]",–
O=C(Cc1ccccn1)N1CCCC(c2nn(-c3cccc(Cl)c3)c(=O)[nH]2)C1 (configuration not stated),–,inactive: -15.5%
COc1ccc(CNC(=O)COC(=O)c2cc(Cl)c[nH]2)cc1,–,inactive: -26.8%
O=C(CCCCCN1C(=O)c2cccc3cccc(c23)C1=O)NCc1ccco1,"inconclusive: 20 µM [inhibitor, partial curve, poor fit]",–
CCCN1C(=O)CCc2cc(NC(=O)c3ccc(OC(F)(F)F)cc3)ccc21,"inconclusive: 14.1 µM [inhibitor, partial curve]",–
Oc1c(C(c2ccccc2Cl)N2CCC(O)CC2)sc2nc(-c3ccco3)nn12 (configuration not stated),"inconclusive: 1.58 µM [inhibitor, partial curve, poor fit]",–
Cc1ccc(NC(=O)Cn2c(=O)n(-c3ccccc3)c(=O)c3ccc(C(=O)NCc4ccc5c(c4)OCO5)cc32)cc1,"inconclusive: 35.5 µM [inhibitor, partial curve, poor fit]",–
CCN(C(=O)Cn1cc(S(=O)(=O)N2CCN(c3ccccc3F)CC2)c2ccccc2c1=O)c1ccc(C)c(C)c1,"inconclusive: 3.16 µM [inhibitor, partial curve, poor fit]",–
CN(Cc1ccc(C(F)(F)F)cc1)C(=O)CCn1cnc2c1c(=O)n(C)c(=O)n2C,–,inactive: 19.9%
O=C(NCC1CCCO1)c1ccc(NC(=O)c2cccc(Cl)c2)cc1 (configuration not stated),"inconclusive: 1.78 µM [inhibitor, full curve, poor fit]",–
Cc1ccc(C)c(NC(=O)c2cc(S(=O)(=O)N3CCN(c4cccc(Cl)c4)CC3)ccc2F)c1,"inconclusive: 6.31 µM [inhibitor, partial curve, poor fit]",–
CC(=O)Nc1ccc(CNC2CCCC(C(F)(F)F)C2)cc1 (configuration not stated),–,inactive: 12.1%
COc1ccccc1CN(C)C(=O)c1ccccc1SCC(=O)N1CCCC1,"inconclusive: 39.8 µM [inhibitor, single point]",–
CCN(CC(=O)Nc1ccc(NC(C)=O)cc1)Cc1nc2ccccc2o1,–,inactive: -11.3%
O=C(Nc1ccc2ncnc(N3CCCCC3)c2c1)c1c(F)cccc1Cl,"inconclusive: 35.5 µM [inhibitor, partial curve, poor fit]",–
CS(=O)(=O)N1CCC(C2CCN(C(=O)c3ccc[nH]c3=O)C2)CC1 (configuration not stated),–,inactive: -24.7%
Cc1ccc(-c2ccnc(=S)[nH]2)cc1C,"inconclusive: 28.2 µM [inhibitor, single point]",–
COc1cccc(CN(C)CC(=O)N2c3ccccc3NC(=O)CC2C)c1OC (configuration not stated),–,inactive: 9.34%
O=C(C1CC(=O)N(c2n[nH]c3cccc(F)c23)C1)N1CCN(c2ccc(F)cc2)CC1 (configuration not stated),"inconclusive: 20 µM [inhibitor, single point]",–
CCn1nccc1C(=O)NCCC1CCN(C(=O)Nc2cc(F)ccc2F)CC1,–,inactive: -12.8%
CCCCc1cc(C[C@H]2CNCC[C@H]2CC(=O)NCc2cccnc2)no1,"inconclusive: 28.2 µM [inhibitor, partial curve]",–
Cc1ccc2nc(-c3cccc(NC(=O)CSc4ccc(Cl)cc4)c3)oc2c1,"inconclusive: 35.5 µM [inhibitor, partial curve, poor fit]",–
Cc1occc1C(=O)N1C[C@@H](C(=O)O)C[C@H](C(=O)NCc2ccccn2)C1,–,inactive: 13.6%

SMILES,Potency,"activity change, negative = inhibition"
Cc1oc(-c2nc(C#N)c(NCc3ccc(F)cc3)o2)cc1S(=O)(=O)N(C)C,"inconclusive: 22.4 µM [inhibitor, partial curve, poor fit]",–
COc1ccccc1NC(=O)Cn1nc2c3cc(F)ccc3n(Cc3cccc(C)c3)cc-2c1=O,–,inactive: 6.35%
Cc1ccc(C2C(C#N)=C(SCC(=O)Nc3cccc(Cl)c3)NC3=C2C(=O)CCC3)o1 (configuration not stated),–,inactive: -14.4%
COc1ccccc1Nc1ncncc1-c1nc(-c2ccccc2)no1,"inconclusive: 39.8 µM [inhibitor, single point]",–
CCOC(=O)/C=C/c1ccc(NC(=O)c2ccc(CN3CCOCC3)cc2)cc1,–,inactive: -10.9%
CC1CCN(c2ccc(CNC(=O)c3cccc4c3CCN4C(=O)C3CC3)cc2)CC1,"inconclusive: 31.6 µM [inhibitor, partial curve, poor fit]",–
O=C(Oc1ccccc1F)c1nc(SCc2ccccc2F)ncc1Cl,"inconclusive: 12.6 µM [inhibitor, partial curve, poor fit]",–
Cn1c(=O)[nH]c(=O)c2c1nc(NN)n2CCOc1ccccc1,"inconclusive: 39.8 µM [inhibitor, single point]",–
COc1cccc(NC(=O)CN(C)C(=O)CSc2ncnc3scc(-c4ccccc4)c23)c1,–,inactive: -20.9%
CCc1ccc(NC(=O)c2sc(-n3nc(C)c(Cc4ccc5c(c4)OCO5)c3C)nc2C)cc1,–,inconclusive: -32% [inhibitor]
Cc1oc2ccn(Cc3cccc(F)c3)c(=O)c2c1C(=O)NCC1CCCCC1,"inconclusive: 31.6 µM [inhibitor, partial curve]",–
N#CC1=C(N)OC2=C(C(=O)CC(c3ccccc3)C2)C1Cc1ccccc1 (configuration not stated),–,inactive: -8.23%
CCCCN1C(=O)NC(c2ccccc2OC)C2=C1COC2=O (configuration not stated),–,inactive: 2.77%
COc1cc(/C=N/OCc2cccc(C(F)(F)F)c2)ccc1OCc1ccc(Cl)cc1,–,inactive: -2.08%
Cc1cc(Br)ccc1NC(=O)CNC(=O)c1cc2ccccc2oc1=O,–,inactive: -3.8%
CCOc1ccc(NC(=O)c2ccc3c(c2)N(C)C2CCCCN2C3=O)cc1 (configuration not stated),"inconclusive: 22.4 µM [inhibitor, single point]",–
COc1ccc(/C=N/OCc2ccc(Cl)c(Cl)c2)c(OC)c1,–,inactive: -20.3%
COc1ccc(NC(=O)CN2CCCN(S(=O)(=O)c3ccc(Br)cc3)CC2)c(OC)c1,–,inconclusive: -32.3% [inhibitor]
O=C(Nc1ccccc1)c1cc(-c2ccncc2)nc2ccccc12,–,inactive: 8.16%
Cc1oc(C(O)c2ccccc2F)nc1C(=O)Nc1ccccc1C(N)=O (configuration not stated),active: 35.5 µM,–
Cc1csc(SCc2cc(Cl)c3c(c2)OCCO3)n1,–,inactive: 14.3%
CCN(Cc1ccccc1)C(=O)Cn1c(=O)n(-c2ccc(F)c(Cl)c2)c(=O)c2sc3ccccc3c21,"inconclusive: 3.16 µM [inhibitor, full curve, poor fit]",–
Cc1ccc(C(=O)NCc2ccnc3[nH]ccc23)cc1,"inconclusive: 39.8 µM [inhibitor, partial curve, poor fit]",–

SMILES,Potency,"activity change, negative = inhibition"
COC(=O)CC1Oc2ccc(F)cc2-n2cc(-c3ccc(Cl)cc3)nc21 (configuration not stated),"inconclusive: 2 µM [inhibitor, partial curve, poor fit]",–
COc1ccc(CN2CCN(CCC=C(C)C)CC2CCO)cc1C (configuration not stated),–,inactive: -11.5%
Cc1cc(C)cc(Nc2cc(C(=O)NCCCN(Cc3ccccc3)C(C)C)c3ccccc3n2)c1,"inconclusive: 35.5 µM [inhibitor, partial curve, poor fit]",–
CCN1C(=O)CCC2(C(=O)NCCN(C)C3CCCCC3)CCCC=C12 (configuration not stated),–,inactive: -22.3%
CCOC(=O)c1cnc2ccc(C)cc2c1Nc1ccccc1OCC,–,inactive: 9.28%
COC(=O)c1c(C)[nH]c(-c2cc(OC)c(OC)c(OC)c2)c1C1C(=O)Nc2ccc(F)cc21 (configuration not stated),"inconclusive: 20 µM [inhibitor, partial curve, poor fit]",–
COc1cc(OC)cc(C(=O)Nc2sc3c(c2C(N)=O)CCC3)c1,"inconclusive: 20 µM [inhibitor, partial curve, poor fit]",–
CN1CC(=O)N(C2CCNC2)Cc2c(NC3CCCC3)ncnc21 (configuration not stated),"inconclusive: 63.1 µM [inhibitor, partial curve, poor fit]",–
CCCNc1nc2ccccc2nc1C(=O)Nc1ccccc1,–,inactive: 21.2%
O=C(C1COc2ccccc2O1)N1CCc2c(nc3cc(-c4ccccc4)[nH]n3c2=O)C1 (configuration not stated),"inconclusive: 25.1 µM [inhibitor, partial curve, poor fit]",–
N#Cc1cccc(NC(=S)O[C@@H]2CO[C@H]3[C@@H]2OC[C@@H]3n2nnnc2SCc2ccco2)c1,active: 15.8 µM,–
CCc1ccccc1N(C(=O)c1snc(C(N)=O)c1N)C(C(=O)NCC1CCCO1)c1c[nH]c2ccccc12 (configuration not stated),"inconclusive: 35.5 µM [inhibitor, partial curve, poor fit]",–
COc1ccc(CNC(=O)c2c(Nc3ccc(OC)cc3OC)sc(C(=O)c3ccc(Cl)cc3)c2N)cc1,"inconclusive: 31.6 µM [inhibitor, single point]",–
CCN1c2ccccc2-c2nc(SCC(=O)Nc3cccc(C(F)(F)F)c3)ncc2S1(=O)=O,"inconclusive: 35.5 µM [inhibitor, partial curve, poor fit]",–
CCOCCOC1CCN(C(=O)c2ccc3[nH]ccc3c2)CC1,–,inactive: -1.29%
COc1cc(O)ccc1C1CC(=O)Nc2c1c(=O)nc(SCc1ccccc1C)n2C (configuration not stated),"inconclusive: 28.2 µM [inhibitor, partial curve, poor fit]",–
COc1ccc(CNc2oc(-c3ccc(COc4ccc(Cl)cc4)o3)nc2C#N)cc1,"inconclusive: 6.31 µM [inhibitor, partial curve, poor fit]",–
COc1ccc(NC(=O)C(C)(C)Oc2nn(C(C)C)c3ccc(CN4CCOCC4)cc23)cc1,"inconclusive: 39.8 µM [inhibitor, single point]",–
O=C1CCN(C(=O)c2ccccc2)CCCC(C(=O)NCCN2CCc3ccccc3C2)CCN1 (configuration not stated),"inconclusive: 25.1 µM [inhibitor, partial curve]",–
Cc1ccc2c(c1)-c1nc3ccccc3cc1/C2=C\c1cccnc1,"inconclusive: 28.2 µM [inhibitor, single point]",–
CCN1CCN(CCCNC(=O)c2cc3c(=O)n(CC)c4ccccc4c3s2)CC1,"inconclusive: 22.4 µM [inhibitor, partial curve, poor fit]",–
